Measurements taken from PubChem BioAssay AID1645886 (National Center for Advancing Translational Sciences (NCATS), 2021).
Several values for one entry are separate records, joined by “and”; a condition that tells them apart may be missing. Identical values can stand only once. Among all 16,000 compounds or so, about 260 (1.6%) were called active. Inconclusive results, whose numbers are uncertain, are shown with a selection of clear calls. Calls follow the shape of the dose curve; as a rule, active = well fitted inhibition curve with a large enough effect; inconclusive = small, poorly fitted or top-dose-only effect; inactive = no such curve, though single readings can be large or run the other way. Where the call is inconclusive, the potency comes from a doubtful curve fit.

Each compound was assayed against Rap guanine nucleotide exchange factor 4 (Homo sapiens) (UniProt Q8WZA2) (assay: Validation qHTS for antagonist of cAMP-regulated guanine nucleotide exchange factor 4 (EPAC2)). Details: EPAC2 Rap1B BODIPY-GDP exchange, fluorescence; activity, negative = inhibition: at 112 µM (top of the series).
Chain of UniProt Q8WZA2 (Q8WZA2 whole entry, looked up): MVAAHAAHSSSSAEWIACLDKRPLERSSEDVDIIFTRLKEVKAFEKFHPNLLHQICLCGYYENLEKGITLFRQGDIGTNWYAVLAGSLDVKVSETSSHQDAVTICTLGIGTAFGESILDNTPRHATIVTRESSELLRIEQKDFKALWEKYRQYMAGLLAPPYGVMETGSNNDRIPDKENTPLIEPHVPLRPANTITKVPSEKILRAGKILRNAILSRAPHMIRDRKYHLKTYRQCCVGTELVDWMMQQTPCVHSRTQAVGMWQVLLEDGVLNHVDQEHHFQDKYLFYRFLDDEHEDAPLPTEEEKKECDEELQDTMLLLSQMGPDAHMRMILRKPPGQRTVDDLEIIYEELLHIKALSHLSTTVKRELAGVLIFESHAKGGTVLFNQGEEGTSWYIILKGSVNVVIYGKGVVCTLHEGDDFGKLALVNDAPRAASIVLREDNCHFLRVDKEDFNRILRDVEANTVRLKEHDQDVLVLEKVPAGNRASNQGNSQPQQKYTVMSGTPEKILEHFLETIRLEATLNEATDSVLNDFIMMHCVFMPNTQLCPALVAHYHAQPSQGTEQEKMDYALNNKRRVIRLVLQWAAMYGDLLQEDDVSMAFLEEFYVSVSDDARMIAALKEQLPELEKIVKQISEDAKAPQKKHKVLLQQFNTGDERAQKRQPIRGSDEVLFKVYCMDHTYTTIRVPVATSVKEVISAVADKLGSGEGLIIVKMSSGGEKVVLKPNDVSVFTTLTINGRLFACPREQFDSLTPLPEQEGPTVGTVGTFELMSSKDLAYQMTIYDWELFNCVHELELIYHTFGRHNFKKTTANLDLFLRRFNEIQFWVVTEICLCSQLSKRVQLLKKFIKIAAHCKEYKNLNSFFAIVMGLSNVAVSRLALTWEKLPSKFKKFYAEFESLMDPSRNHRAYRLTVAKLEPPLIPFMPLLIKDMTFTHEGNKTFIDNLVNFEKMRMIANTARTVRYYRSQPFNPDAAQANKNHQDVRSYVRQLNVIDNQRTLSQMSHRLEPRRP
Summary of the method: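 Fluorescent exchange read-out: 100 nM EPAC2 with 250 nM RAP1B–BODIPY-GDP and 50 uM GDP; BODIPY-GDP release lowers fluorescence. Read at 480/540 nm every 5 min for 30 min at room temperature; normalized to 6.5 mM cAMP.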
Also: nearly all actives have a fitted effect of over 40% in size.
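For activity, negative = inhibition in this document: 100% = activation by cAMP agonist control.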
Potency is read from the fitted curve at half-maximal effect; tags tell the direction and shape of the fitted curve.

| SMILES | Potency | activity, negative = inhibition |
| --- | --- | --- |
| N=C(N)SCCc1cnc[nH]1 | inconclusive: 100 µM [inhibitor, partial curve, poor fit] | – |
| COc1cc(=O)n2c(c1C(=O)NC(C)c1ccco1)CCN(C(=O)c1cn3ccc(C)cc3n1)CC2 (stereo not drawn) | inconclusive: 17.8 µM [inhibitor, partial curve, poor fit] | – |
| COc1cccc(-c2ccc3ncnc(N4CCN(C)CC4)c3c2)c1 | inconclusive: 89.1 µM [inhibitor, partial curve, poor fit] | – |
| COc1ccccc1CNc1ncncc1-c1ccccc1OC | inconclusive: 50.1 µM [inhibitor, partial curve] | – |
| O=C(NCc1nnc2n1CCN(Cc1ccnc3ccccc13)CC2)c1cccc(F)c1 | inconclusive: 31.6 µM [inhibitor, single point] | – |
| CCC(c1ccc(O)cc1)C(CC)c1ccc(O)cc1 (stereo not drawn) | inconclusive: 44.7 µM [inhibitor, partial curve] | – |
| CCCCCCC(=O)O[C@H]1CC[C@H]2[C@@H]3CCc4cc(O)ccc4[C@H]3CC[C@]12C | – | inactive: -19.1% |
| O=c1c(-c2ccccc2)nc2cnc(N3CCNCC3)nc2n1Cc1ccc(F)cc1 | – | inactive: -14.5% |
| CC1(CN2CCC(n3c(=O)[nH]c4ccccc43)CC2)OCc2ccccc2-n2cccc21 (stereo not drawn) | inconclusive: 50.1 µM [inhibitor, partial curve] | – |
| CCC(=O)OC(OP(=O)(CCCCc1ccccc1)CC(=O)N1C[C@H](C2CCCCC2)C[C@H]1C(=O)O)C(C)C (stereo partly drawn) | – | inactive: -25.8% |
| CC(=O)OC/C=C(C)/C=C/C=C(C)/C=C/C1=C(C)CCCC1(C)C | inconclusive: 89.1 µM [inhibitor, single point] | – |
| CCCCC(=O)OCC(=O)[C@]1(O)Cc2c(O)c3c(c(O)c2[C@@H](O[C@H]2C[C@H](NC(=O)C(F)(F)F)[C@H](O)[C@H](C)O2)C1)C(=O)c1c(OC)cccc1C3=O | – | inactive: -3.6% |
| N#Cc1ccc(CN2CC[C@@]3(CCCN(S(=O)(=O)c4ccccc4)C3)C2)cc1 | inconclusive: 35.5 µM [inhibitor, partial curve] | – |
| COc1ccccc1N1CCN(c2nc(CNC(=O)c3ccccc3F)nc3ccccc23)CC1 | inconclusive: 100 µM [inhibitor, single point] | – |
| CC(C)c1ccc2c(c1)CCC1C(C)(C(N)=O)CCCC21C (stereo not drawn) | inconclusive: 44.7 µM [inhibitor, partial curve, poor fit] | – |
| CCCCCCCC/C=C\CCCCCCCC(=O)NCc1ccc(O)c(OC)c1 | inconclusive: 7.08 µM [inhibitor, full curve, poor fit] | – |
| N=c1ccn2c(n1)O[C@H]1[C@H](O)[C@@H](CO)O[C@H]12 | inconclusive: 39.8 µM [inhibitor, single point] | – |
| O=C(c1ccco1)N1CCC2(CCCN(C(c3ccccc3)c3ccccc3)C2)CC1 | inconclusive: 0.447 µM [inhibitor, full curve, poor fit] | – |
| COc1ccc(CNc2nc(-c3cccnc3)nc3ccccc23)c(OC)c1 | inconclusive: 100 µM [inhibitor, partial curve, poor fit] | – |

| SMILES | Potency | activity, negative = inhibition |
| --- | --- | --- |
| Cc1c(C(=O)NCC2(N3CCOCC3)CCCCCC2)cnn1-c1nccc(-c2ccccc2F)n1 | inconclusive: 79.4 µM [inhibitor, single point] | – |
| Cc1c(C(=O)NCC2(c3ccccc3)CCOCC2)cnn1-c1nccc(-c2ccco2)n1 | inconclusive: 4.47 µM [inhibitor, partial curve, poor fit] | – |
| O=c1cc(-c2cc(O)c(O)c(O)c2)oc2cc(O)cc(O)c12 | inconclusive: 25.1 µM [inhibitor, partial curve] | – |
| COc1ccc(-c2nc(C(=O)N3CCN(C)CC3)sc2-c2ccc(OC)cc2)cc1 | inconclusive: 56.2 µM [inhibitor, partial curve] | – |
| CCCCC[C@H]1CN(Cc2ccccc2)C(=O)[C@@H]1CC(=O)NCc1ccccc1 | inconclusive: 0.282 µM [inhibitor, full curve, poor fit] | – |
| COc1ccc(C(=O)N2CCC3(CCN(Cc4cc(C(F)(F)F)cc(C(F)(F)F)c4)CC3)CC2)cc1 | active: 28.2 µM | – |
| COC(=O)C1=C(C)NC(C)=C(C(=O)OC)C1c1ccccc1[N+](=O)[O-] | inactive and inconclusive: 56.2 µM [inhibitor, partial curve, poor fit] | – |
| CN(C)c1ccc(-c2nc(-n3ccnc3)c3ccccc3n2)cc1 | inconclusive: 79.4 µM [inhibitor, single point] | – |
| CC1(C)C(C=C(Cl)Cl)C1C(=O)OCc1cccc(Oc2ccccc2)c1 (stereo not drawn) | inconclusive: 70.8 µM [inhibitor, partial curve, poor fit] | – |
| COc1cc2c(cc1O)CC[C@@H]1[C@@H]2CC[C@]2(C)[C@@H](O)CC[C@@H]12 | inconclusive: 70.8 µM [inhibitor, partial curve, poor fit] | – |
| c1ccc(-c2csc(-c3nc4ccccc4[nH]3)n2)cc1 | – | inactive: -15.5% |
| COc1ccc(NC(=O)N2CCCC3(CCN(C(=O)c4csnn4)CC3)C2)cc1 | inconclusive: 89.1 µM [inhibitor, single point] | – |
| Nc1ccc(O)c(C(=O)O)c1 | – | inactive: 7.66% |
| CN(C)CCCN1c2ccccc2CCc2ccc(Cl)cc21 | inconclusive: 56.2 µM [inhibitor, partial curve] | – |
| COc1ncccc1C(=O)N1CCOc2ccc(C(O)C(c3ccccc3)c3ccccc3)cc2C1 (stereo not drawn) | inconclusive: 100 µM [inhibitor, single point] | – |
| CO[C@]1(C2=NCCN2)COc2ccccc2O1 | inconclusive: 89.1 µM [inhibitor, partial curve] | – |
| Cc1cc(C(C)(C)CC(C)(C)C)ccc1OCCOCC[N+](C)(C)Cc1ccccc1 | inconclusive: 15.8 µM [inhibitor, partial curve] | – |
| C#C[C@]1(OC(C)=O)CC[C@H]2[C@@H]3CCC4=C[C@@H](OC(C)=O)CC[C@@H]4[C@H]3CC[C@@]21C | inconclusive: 50.1 µM [inhibitor, partial curve, poor fit] | – |
| COc1cccc(-c2nc(NCc3ccccc3)c3ccccc3n2)c1 | – | inconclusive: -50.7% [inhibitor] |
